Reference: patent US20230035169A1 (WUXI BIOLOGICS IRELAND, published 2023)

Tests used:
[1] = target: T1, Human PD-L1 on cells (W315-CHO-K1.hPro1.C11) (human, UniProt Q9NZQ7); assay: FACS on human PD-L1 expressing CHO-K1 cells
T1 construct: whole, on cells; Also used for the human PD-L1 of the artificial APC (CHO-K1 cells with human PD-L1 and OKT3 scFv) in the PD-1 reporter assay; also called cell surface human PD-L1; hPD-L1
Protocol: After washing, the cells were incubated with PE-labeled goat anti-human IgG-Fc antibody (Jackson Immuno Research). Finally, the MFI of the cells was measured by a flow cytometer and analyzed by FlowJo.

[2] = target: T2, Human PD-L1 extracellular domain (ECD) antigen His tagged (human, UniProt Q9NZQ7 partial chain); assay: SPR (Biacore 8K), antibody captured on anti-human IgG Fc chip, PD-L1 as analyte, 1:1 model
T2 construct: extracellular domain; Bought; Biotinylated when used as the detecting reagent in the dual target ELISA; also called human PD-L1 ECD protein; not shown: His tag
Protocol: (§1) Antibody was captured on an anti-human IgG Fc antibody immobilized CM5 sensor chip (GE). Human or cyno PD-L1 at different concentrations were injected over the sensor chip at a flow rate of 30 μL/min for an association phase of 180 s, followed by 3600 s dissociation. […] The chip was regenerated by 10 mM glycine (pH 1.5) after each binding cycle.
(§2) The sensorgrams of blank surface and buffer channel were subtracted from the test sensorgrams. […] The experimental data was fitted by 1:1 model using Langmiur analysis. Molecular weight of 40 kDa was used to calculate the molar concentration of human, mouse and cyno PD-L1.

[3] = target: T3, Cynomolgus monkey (cyno) PD-L1 ECD antigen His tagged (cynomolgus monkey, UniProt G7PSE7 19-238); assay: as above
T3 construct: Bought
Protocol: as §1, §2

[4] = target: T4, Cynomolgus monkey PD-L1 on cells (W315-293F.cynoPro1.2A2) (cynomolgus monkey, UniProt G7PSE7 19-290); assay: FACS on cyno PD-L1 expressing 293F cells
T4 construct: also called cell surface cyno PD-L1
Protocol: (§3) MFI of the cells was measured by a flow cytometer and analyzed by FlowJo.

[5] = target: T5, Mouse PD-L1 on cells (W315-293F.mPro1.C1) (mouse, UniProt Q9EP73); assay: FACS on mouse PD-L1 expressing 293F cells
T5 construct: whole, on cells; also called cell surface mouse PD-L1
Protocol: as §3

[6] = target: T6, Mouse PD-L1 ECD antigen His tagged (mouse, UniProt Q9EP73 partial chain); assay: SPR (Biacore 8K), antibody captured on anti-human IgG Fc chip, PD-L1 as analyte, 1:1 model, 0-300 s fitted
T6 construct: extracellular domain; Bought; not shown: His tag
Protocol: as §1, §2

Human TGF-β1 = Human TGF-β1 (human, UniProt P01137 partial chain); assay: cell-based or functional assay
[7] = target: T1, Human PD-L1 on cells …; assay: cell-based or functional assay

Sequence of Human TGF-β1 (P01137 279-390 limits assumed): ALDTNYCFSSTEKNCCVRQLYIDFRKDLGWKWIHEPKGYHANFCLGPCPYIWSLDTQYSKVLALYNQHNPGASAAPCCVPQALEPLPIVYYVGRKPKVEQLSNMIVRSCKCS

B1: WT1126-U15T1.G1-1.uIgG1 (bispecific antibody)
chain: EVQLVESGGGLVQPGGSLRLSCAASGHFSNLAVNWFRQAPGKERELVAGILWSGGSTFYADSVKGRFTISRGNAENMLYLQMNSLRAEDTAVYYCNTGTNWGQGTLVTVSS[sequence of human IgG1 Fc not given]GGGSGGGGSGGGGSGGGGSIPPHVQKSVNNDMIVTDNNGAVKFPQLCKFCDVRFSTCDNQKSCMSNCSITSICEKPQEVCVAVWRKNDENITLETVCHDPKLPYHDFILEDAASPKCIMKEKKKPGETFFMCSCSSDECNDNIIFSEEYNTSNPD
notes: Anti-PD-L1 VHH-Fc (human IgG1) fused at the C-terminus of the Fc to the TGFbRII ECD, no light chain; also called WT1126-U15T1.G1.uIgG1; WT1126-U15T1.1.uIgG1
Question: B1 was tested. Which EC50 [1] did it give?
Answer: 0.14 nM

Question: And the Kd [2]?
Answer: 0.267 nM

Question: What about the koff [2] of the same binder?
Answer: 0.000307 s⁻¹

Question: What about the kon [2] of the same binder?
Answer: 1.15e+06 M⁻¹ s⁻¹

Question: And the Kd [3]?
Answer: 0.461 nM

Question: What about the koff [3] of the same binder?
Answer: 0.000465 s⁻¹

Question: What about the kon [3] of the same binder?
Answer: 1.01e+06 M⁻¹ s⁻¹

Question: What about the EC50 [4] of the same binder?
Answer: 0.63 nM

Question: What about the EC50 [5] of the same binder?
Answer: 0.71 nM

Question: What about the Kd [6] of the same binder?
Answer: 41.9 nM

Question: And the koff [6]?
Answer: 0.0108 s⁻¹

Question: And the kon [6]?
Answer: 258000 M⁻¹ s⁻¹

Question: And the “TGF-β1 blockade IC50, SBE luciferase reporter gene assay” value (Human TGF-β1)?
Answer: 0.7 nM

Question: What about the “hPD-1/PD-L1 signaling blockade IC50, NFAT luciferase reporter gene assay (PD-1 Jurkat cells with PD-L1 artificial APC)” value [7] of the same binder?
Answer: 0.28 nM
